Experimental findings from PMC6815820 are described below.

Protein sequences, listed by entry. Tags and fused reporters are not part of them. Residues count along the entry.
UniProt O60602, residues 21-858: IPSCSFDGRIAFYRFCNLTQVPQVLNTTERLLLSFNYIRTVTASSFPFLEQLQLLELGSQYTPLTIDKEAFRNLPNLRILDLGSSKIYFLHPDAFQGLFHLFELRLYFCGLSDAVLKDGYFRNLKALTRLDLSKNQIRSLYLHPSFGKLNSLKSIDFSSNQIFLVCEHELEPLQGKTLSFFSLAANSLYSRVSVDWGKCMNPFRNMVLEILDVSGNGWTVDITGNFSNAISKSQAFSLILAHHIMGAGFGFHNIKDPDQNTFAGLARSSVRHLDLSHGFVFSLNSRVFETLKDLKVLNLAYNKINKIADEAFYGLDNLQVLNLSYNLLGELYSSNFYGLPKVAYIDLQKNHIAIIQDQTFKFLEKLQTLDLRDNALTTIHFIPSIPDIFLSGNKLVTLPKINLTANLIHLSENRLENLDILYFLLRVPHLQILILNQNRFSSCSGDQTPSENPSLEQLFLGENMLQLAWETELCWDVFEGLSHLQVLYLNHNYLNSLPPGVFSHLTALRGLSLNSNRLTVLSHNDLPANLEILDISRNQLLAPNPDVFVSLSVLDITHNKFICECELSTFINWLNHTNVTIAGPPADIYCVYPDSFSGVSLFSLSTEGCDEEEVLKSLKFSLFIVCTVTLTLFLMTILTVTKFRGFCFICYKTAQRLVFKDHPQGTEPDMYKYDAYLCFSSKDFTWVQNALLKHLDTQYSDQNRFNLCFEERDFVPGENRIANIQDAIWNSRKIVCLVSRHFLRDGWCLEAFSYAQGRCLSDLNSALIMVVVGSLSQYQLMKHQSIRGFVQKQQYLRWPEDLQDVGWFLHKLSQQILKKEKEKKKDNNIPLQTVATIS

No constants are given. Whether binding was seen depends on the method and setting. In cells and extracts the contact can be indirect. Some results given as binding are weak or reduced against the parent protein; the word gives no strength. For part of these data: Tags and fused reporters may be left off the sequences shown.

B1: Treponema pallidum flagellin FlaB3, full-length recombinant (protein, UniProt P21992 1-285)
chain: MIINHNMSAMFAQRQGGINGLAIAKNIEKLSSGYRINRAGDDASGLAVSEKMRSQIRGLNQAGQNIQNGISFIQATEGYLAETTEIVQRLRELAIQAANGIYSAEDRMQIQVEVSQLVDEVDRIASQAQFNGMNLLTGRFSRESALGPMQLHVGANMDQNEKIFINTMTASALGFFSDEGTDGSRSISIATVDGANKVIGTLDSALKEINKQRADLGAYQNRFETAYQGIAIAAENLQAAESRIRDADLAQQMVDYTKNQILEQSTMAMLAQANTQPQAVLRLMQ
B2: Treponema pallidum flagellin FlaB2, full-length recombinant (protein, UniProt P21991 1-286)
chain: MIINHNMSAMFSQRTLGHTNLSVQKNIEKLSSGLRINRSGDDASGLAVSEKMRSQIRGLNQASTNAQNGISFIQVAEAFLQETTDVIQRIRELSVQAANGIYSAEDRLYIQVEVSQLVAEVDRIASHAQFNGMNMLTGRFARQGGENTVTASMWFHIGANMDQRTRAYIGTMTAVAMGIRDAGDESVMNIDSPEKANRAIGTLDQAIKRINKQRADLGAYQNRLDHTVAGINVAAENLQAAESRIRDVDMAKEMVDYTKNQILVQSGTAMLAQANQATQSVLSLLR
B3: Treponema pallidum flagellin FlaB1, full-length recombinant (protein, UniProt P21990 1-286)
chain: MIINHNMSAMFAQRTLGHTNVQVGKGIEKLSSGYRINRAGDDASGLAVSEKMRSQIRGLNQASTNASNGVNFIQVTEAYLQETTDIMQRIRELAIQAANGIYSAEDRMQIQVEVSQLVAEVDRIASSAQFNGMNLLTGRFSRTEGENVIGGSMWFHIGANMDQRMRVYIGTMTAVALGVRNGVDESIMSIETADSANKSIGTIDAALKRINKQRADLGGYQNRMEYTVVGLDIAAENLQAAESRIRDANIAKQMVEYTKNQVLTQSGTAMLAQANTSAQSILSILR

In the first experiment the target is human TLR5 (human (endogenous in THP-1)) (UniProt O60602). The experiment can be described thus: co-IP; 30 ug purified His-tagged flagellin added to THP-1 lysate (or lysis buffer as control); anti-hTLR5 mAb 19D759.2 at 4 C for 16 h; agarose beads 1 h at room temperature; 5 washes with 1x PBS, 0.02% Tween 20, pH 7.5; flagellin detected with anti-His antibodies; only the binder purified.
Consider “TpFlaB1 C (202-286) (from UniProt P21990 202-286) (domain or fragment)”, for which the binding entry is “no binding (tested: 30 μg of each protein)”.

On to “TpFlaB1 △C0 (1-242) (from UniProt P21990 1-242) (domain or fragment)”, for which the binding result is “binds”.

“TpFlaB1 △C (1-201) (from UniProt P21990 1-201) (domain or fragment)”: the binding entry is recorded as “binds”.

In the case of “TpFlaB1 △N0 (52-286) (from UniProt P21990 52-286) (domain or fragment)”, the binding entry is given as “binds”.

Regarding “TpFlaB1 △N0C0 (52-242) (from UniProt P21990 52-242) (domain or fragment)”, the binding entry is recorded as “binds”.

Regarding “TpFlaB1 △N (139-286) (from UniProt P21990 139-286) (domain or fragment)”, the binding entry is “no binding (tested: 30 μg of each protein)”.

Turning to “TpFlaB2 C (202-286) (from UniProt P21991 202-286) (domain or fragment)”, the binding entry is listed as “no binding (tested: 30 μg of each protein)”.

For the molecule “TpFlaB2 △C0 (1-242) (from UniProt P21991 1-242) (domain or fragment)”, the binding result is recorded as “binds”.

As to “TpFlaB2 △C (1-201) (from UniProt P21991 1-201) (domain or fragment)”, the binding entry is reported as “binds”.

For “TpFlaB2 △N0 (52-286) (from UniProt P21991 52-286) (domain or fragment)”, the binding result was “binds”.

Turning to “TpFlaB2 △N0C0 (52-242) (from UniProt P21991 52-242) (domain or fragment)”, the binding entry is recorded as “binds”.

“TpFlaB2 △N (139-286) (from UniProt P21991 139-286) (domain or fragment)”: the binding entry is recorded as “no binding (tested: 30 μg of each protein)”.

As for “TpFlaB3 C (202-286) (from UniProt P21992 202-285) (domain or fragment)”, the binding entry was “no binding (tested: 30 μg of each protein)”.

For “TpFlaB3 △C0 (1-242) (from UniProt P21992 1-242) (domain or fragment)”, the binding result is “binds”.

On to “TpFlaB3 △C (1-201) (from UniProt P21992 1-201) (domain or fragment)”, for which the binding result is listed as “binds”.

As to “TpFlaB3 △N0 (52-286) (from UniProt P21992 52-285) (domain or fragment)”, the binding result is recorded as “binds”.

As for “TpFlaB3 △N0C0 (52-242) (from UniProt P21992 52-242) (domain or fragment)”, the binding result was “binds”.

As to “TpFlaB3 △N (139-286) (from UniProt P21992 139-285) (domain or fragment)”, the binding result was “no binding (tested: 30 μg of each protein)”.

The next experiment shares this target. The experiment is described as above. This is another data set of the same source.
B1: the binding entry is reported as “binds”.

As for B2, the binding result is “binds”.

Turning to B3, the binding result is “binds”.
